Reference: the supplement of paper PMC8728848
The list shows a part of the results.

Assays:
Experiment in all cases: glycan array binding signal (z-score within array); higher = stronger binding
Conditions in all cases: glycan notation: IUPAC condensed, linker removed
[1] = target: Man(a1-6)Man(b1-4)GlcNAc(b1-4)GlcNAc
How it was run: (§1)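 Negative Z-scores can be read as non-binding. The Z-score is calculated within each array and then averaged across arrays of one protein sequence at different concentrations or buffers and across linkers. Arrays, 3228 in all, were curated from the Consortium for Functional Glycomics database and kept only where the protein sequence was available.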

Man(b1-4)GlcNAc = target: Man(b1-4)GlcNAc
How it was run: as §1

[2] = target: Man(b1-4)Man(b1-4)Man(b1-4)Man
How it was run: as §1

[3] = target: Man(b1-4)Man(b1-4)Man(b1-4)Man(b1-4)Man
How it was run: as §1

[4] = target: Man(b1-4)Man(b1-4)Man(b1-4)Man(b1-4)Man(b1-4)Man
How it was run: as §1

[5] = target: Man6P(a1-3)Man(a1-3)Man(a1-3)Man(a1-2)Man
How it was run: as §1

Neu(a2-3)Gal(b1-4)Glc = target: Neu(a2-3)Gal(b1-4)Glc
How it was run: as §1

[6] = target: Neu(a2-3)Gal(b1-4)GlcNAc(b1-3)Gal(b1-4)[Fuc(a1-3)]GlcNAc(b1-3)Gal(b1-4)Glc
How it was run: as §1

[7] = target: Neu(a2-3)Gal(b1-4)GlcNAc6S(b1-3)Gal(b1-4)Glc
How it was run: as §1

[8] = target: Neu(a2-3)Gal(b1-4)[Fuc(a1-3)]GlcNAc(b1-3)Gal(b1-4)Glc
How it was run: as §1

[9] = target: Neu(a2-3)Gal(b1-4)[Fuc(a1-3)]GlcNAc6S(b1-3)Gal(b1-4)Glc
How it was run: as §1

[10] = target: Neu(a2-3)Gal6S(b1-4)[Fuc(a1-3)]GlcN(b1-3)Gal(b1-4)Glc
How it was run: as §1

Neu(a2-6)Gal(b1-4)Glc = target: Neu(a2-6)Gal(b1-4)Glc
How it was run: as §1

[11] = target: Neu4Ac5Ac(a2-3)Gal(b1-4)Glc
How it was run: as §1

Neu5Ac(a2-3)Gal = target: Neu5Ac(a2-3)Gal
How it was run: as §1

[12] = target: Neu5Ac(a2-3)Gal(b1-3)GalNAc(b1-4)Gal(b1-4)Glc
How it was run: as §1

[13] = target: Neu5Ac(a2-3)Gal(b1-3)GalNAc(b1-4)[Neu5Ac(a2-3)]Gal(b1-4)Glc
How it was run: as §1

[14] = target: Neu5Ac(a2-3)Gal(b1-3)GalNAc(b1-4)[Neu5Ac(a2-8)Neu5Ac(a2-3)]Gal(b1-4)Glc
How it was run: as §1

[15] = target: Neu5Ac(a2-3)Gal(b1-3)GlcNAc(b1-3)Gal(b1-4)Glc
How it was run: as §1

[16] = target: Neu5Ac(a2-3)Gal(b1-3)GlcNAc(b1-3)[Fuc(a1-3)[Gal(b1-4)]GlcNAc(b1-6)]Gal(b1-4)Glc
How it was run: as §1

[17] = target: Neu5Ac(a2-3)Gal(b1-3)[Fuc(a1-4)]GlcNAc
How it was run: as §1

[18] = target: Neu5Ac(a2-3)Gal(b1-3)[Fuc(a1-4)]GlcNAc(b1-3)Gal(b1-4)Glc
How it was run: as §1

[19] = target: Neu5Ac(a2-3)Gal(b1-3)[Neu5Ac(a2-6)]GalNAc
How it was run: as §1

[20] = target: Neu5Ac(a2-3)Gal(b1-3)[Neu5Ac(a2-6)]GlcNAc(b1-3)Gal(b1-4)Glc
How it was run: as §1

Neu5Ac(a2-3)Gal(b1-4)Glc = target: Neu5Ac(a2-3)Gal(b1-4)Glc
How it was run: as §1

[21] = target: Neu5Ac(a2-3)Gal(b1-4)GlcNAc
How it was run: as §1

[22] = target: Neu5Ac(a2-3)Gal(b1-4)GlcNAc(b1-2)Man(a1-3)[Neu5Ac(a2-3)Gal(b1-4)GlcNAc(b1-2)Man(a1-6)]Man(b1-4)GlcNAc(b1-4)[Fuc(a1-6)]GlcNAc
How it was run: as §1

[23] = target: Neu5Ac(a2-3)Gal(b1-4)GlcNAc(b1-3)Gal(b1-4)Glc
How it was run: as §1

[24] = target: Neu5Ac(a2-3)Gal(b1-4)GlcNAc6S(b1-3)Gal6S(b1-3)GlcNAc6S
How it was run: as §1

[25] = target: Neu5Ac(a2-3)Gal(b1-4)[Fuc(a1-3)]GlcNAc(b1-3)Gal
How it was run: as §1

[26] = target: Neu5Ac(a2-3)Gal(b1-4)[Fuc(a1-3)]GlcNAc(b1-3)Gal(b1-4)Glc
How it was run: as §1

[27] = target: Neu5Ac(a2-3)Gal(b1-4)[Fuc(a1-3)]GlcNAc(b1-3)Gal(b1-4)[Fuc(a1-3)]GlcNAc(b1-3)Gal(b1-4)Glc
How it was run: as §1

[28] = target: Neu5Ac(a2-3)Gal(b1-4)[Fuc(a1-3)]GlcNAc6S(b1-3)Gal(b1-4)Glc
How it was run: as §1

[29] = target: Neu5Ac(a2-3)Gal(b1-4)[Fuc(a1-3)]GlcNAc6S(b1-3)Gal6S(b1-3)GlcNAc6S
How it was run: as §1

[30] = target: Neu5Ac(a2-3)Gal6S(b1-4)[Fuc(a1-3)]GlcNAc(b1-3)Gal(b1-4)Glc
How it was run: as §1

[31] = target: Neu5Ac(a2-3)Gal6S(b1-4)[Fuc(a1-3)]GlcNAc6S(b1-3)Gal(b1-4)Glc
How it was run: as §1

[32] = target: Neu5Ac(a2-3)[GalNAc(b1-4)]Gal(b1-3)GalNAc(b1-4)[Neu5Ac(a2-3)]Gal(b1-4)Glc
How it was run: as §1

[33] = target: Neu5Ac(a2-3)[GalNAc(b1-4)]Gal(b1-4)Glc
How it was run: as §1

[34] = target: Neu5Ac(a2-6)Gal(b1-3)GlcNAc(b1-3)[Fuc(a1-3)[Gal(b1-4)]GlcNAc(b1-6)]Gal(b1-4)Glc
How it was run: as §1

[35] = target: Neu5Ac(a2-6)Gal(b1-3)GlcNAc(b1-3)[Gal(b1-4)GlcNAc(b1-6)]Gal(b1-4)Glc
How it was run: as §1

Neu5Ac(a2-6)Gal(b1-4)Glc = target: Neu5Ac(a2-6)Gal(b1-4)Glc
How it was run: as §1

[36] = target: Neu5Ac(a2-6)Gal(b1-4)GlcNAc
How it was run: as §1

[37] = target: Neu5Ac(a2-6)Gal(b1-4)GlcNAc(b1-2)Man(a1-3)[Neu5Ac(a2-6)Gal(b1-4)GlcNAc(b1-2)Man(a1-6)]Man(b1-4)GlcNAc(b1-4)GlcNAc
How it was run: as §1

[38] = target: Neu5Ac(a2-6)Gal(b1-4)GlcNAc(b1-2)Man(a1-3)[Neu5Gc(a2-6)Gal(b1-4)GlcNAc(b1-2)Man(a1-6)]Man(b1-4)GlcNAc(b1-4)GlcNAc
How it was run: as §1

[39] = target: Neu5Ac(a2-6)Gal(b1-4)GlcNAc(b1-2)[Neu5Ac(a2-3)Gal(b1-4)GlcNAc(b1-4)]Man(a1-3)[Neu5Ac(a2-3)Gal(b1-4)GlcNAc(b1-2)Man(a1-6)]Man(b1-4)GlcNAc(b1-4)GlcNAc
How it was run: as §1

[40] = target: Neu5Ac(a2-6)Gal(b1-4)GlcNAc(b1-3)Gal(b1-4)Glc
How it was run: as §1

[41] = target: Neu5Ac(a2-6)Gal(b1-4)GlcNAc(b1-3)[Neu5Ac(a2-6)Gal(b1-4)GlcNAc(b1-6)]Gal(b1-4)Glc
How it was run: as §1

[42] = target: Neu5Ac(a2-6)Gal(b1-4)GlcNAc(b1-6)[Gal(b1-3)GlcNAc(b1-3)]Gal(b1-4)Glc
How it was run: as §1

[43] = target: Neu5Ac(a2-6)Gal(b1-4)[Fuc(a1-3)]GlcNAc(b1-3)Gal(b1-4)Glc
How it was run: as §1

Neu5Ac(a2-8)Neu5Ac = target: Neu5Ac(a2-8)Neu5Ac
How it was run: as §1

[44] = target: Neu5Ac(a2-8)Neu5Ac(a2-3)Gal(b1-3)GalNAc(b1-4)[Neu5Ac(a2-3)]Gal(b1-4)Glc
How it was run: as §1

[45] = target: Neu5Ac(a2-8)Neu5Ac(a2-3)Gal(b1-3)GalNAc(b1-4)[Neu5Ac(a2-8)Neu5Ac(a2-3)]Gal(b1-4)Glc
How it was run: as §1

[46] = target: Neu5Ac(a2-8)Neu5Ac(a2-3)Gal(b1-4)Glc
How it was run: as §1

[47] = target: Neu5Ac(a2-8)Neu5Ac(a2-3)[Gal(b1-3)GalNAc(b1-4)]Gal(b1-4)Glc
How it was run: as §1

[48] = target: Neu5Ac(a2-8)Neu5Ac(a2-3)[GalNAc(b1-4)]Gal(b1-4)Glc
How it was run: as §1

[49] = target: Neu5Ac(a2-8)Neu5Ac(a2-8)Neu5Ac
How it was run: as §1

[50] = target: Neu5Ac(a2-8)Neu5Ac(a2-8)Neu5Ac(a2-8)Neu5Ac
How it was run: as §1

[51] = target: Neu5Ac(a2-8)Neu5Ac(a2-8)Neu5Ac(a2-8)Neu5Ac(a2-8)Neu5Ac
How it was run: as §1

[52] = target: Neu5Ac(a2-8)Neu5Ac(a2-8)Neu5Ac(a2-8)Neu5Ac(a2-8)Neu5Ac(a2-8)Neu5Ac
How it was run: as §1

[53] = target: Neu5Ac(a2-8)Neu5Ac(a2-8)Neu5Ac(a2-8)Neu5Ac(a2-8)Neu5Ac(a2-8)Neu5Ac(a2-8)Neu5Ac
How it was run: as §1

[54] = target: Neu5Ac(a2-8)Neu5Ac(a2-8)Neu5Ac(a2-8)Neu5Ac(a2-8)Neu5Ac(a2-8)Neu5Ac(a2-8)Neu5Ac(a2-8)Neu5Ac
How it was run: as §1

[55] = target: Neu5Ac(a2-8)Neu5Ac(a2-8)Neu5Ac(a2-8)Neu5Ac(a2-8)Neu5Ac(a2-8)Neu5Ac(a2-8)Neu5Ac(a2-8)Neu5Ac(a2-8)Neu5Ac
How it was run: as §1

[56] = target: Neu5Ac(a2-8)Neu5Ac(a2-8)Neu5Ac(a2-8)Neu5Ac(a2-8)Neu5Ac(a2-8)Neu5Ac(a2-8)Neu5Ac(a2-8)Neu5Ac(a2-8)Neu5Ac(a2-8)Neu5Ac
How it was run: as §1

[57] = target: Neu5Ac(a2-8)Neu5Ac(a2-8)Neu5Ac(a2-8)Neu5Ac(a2-8)Neu5Ac(a2-8)Neu5Ac(a2-8)Neu5Ac(a2-8)Neu5Ac(a2-8)Neu5Ac(a2-8)Neu5Ac(a2-8)Neu5Ac
How it was run: as §1

Neu5Ac(b2-3)Gal(b1-4)Glc = target: Neu5Ac(b2-3)Gal(b1-4)Glc
How it was run: as §1

Neu5Ac(b2-6)Gal(b1-4)Glc = target: Neu5Ac(b2-6)Gal(b1-4)Glc
How it was run: as §1

[58] = target: Neu5Ac9Ac(a2-6)Gal(b1-4)GlcNAc
How it was run: as §1

Neu5Gc(a2-3)Gal(b1-4)Glc = target: Neu5Gc(a2-3)Gal(b1-4)Glc
How it was run: as §1

[59] = target: Neu5Gc(a2-3)[GalNAc(b1-4)]Gal
How it was run: as §1

[60] = target: Neu5Gc(a2-6)Gal(b1-4)GlcNAc(b1-2)Man(a1-3)[Neu5Gc(a2-6)Gal(b1-4)GlcNAc(b1-2)Man(a1-6)]Man(b1-4)GlcNAc(b1-4)GlcNAc
How it was run: as §1

[61] = target: Xyl(a1-6)Glc(b1-4)[Xyl(a1-6)]Glc(b1-4)[Xyl(a1-6)]Glc(b1-4)Glc
How it was run: as §1

[62] = target: Xyl(b1-2)[Man(a1-3)][Man(a1-6)]Man(b1-4)GlcNAc(b1-4)GlcNAc
How it was run: as §1

[63] = target: Xyl(b1-2)[Man(a1-3)][Man(a1-6)]Man(b1-4)GlcNAc(b1-4)[Fuc(a1-3)]GlcNAc
How it was run: as §1

[64] = target: Xyl(b1-4)Xyl(b1-4)Xyl(b1-4)Xyl(b1-4)Xyl
How it was run: as §1

Measured: glycan array binding signal (z-score)

B1: Malectin (Xenopus laevis), Q6INX3 (protein)
chain: SGLADKVIWAVNAGGESHVDVHGIHYRKDPLEGRVGRASDYGMKLPILRSNPEDQVLYQTERYNEDSFGYDIPIKEEGEYVLVLKFAEVYFAQSQQKVFDVRVNGHTVVKDLDIFDRVGHSTAHDEIIPISIKKGKLSVQGEVSTFTGKLSVEFVKGYYDNPKVCALFIMKGTADDVPMLQPHPGLE
-0.073: [12] | [23] | Neu5Ac(a2-8)Neu5Ac | [50] | [55] | [58]
-0.067: [15] | Neu5Gc(a2-3)Gal(b1-4)Glc
-0.075: Man(b1-4)GlcNAc | [5] | [6] | [10] | [24] | [40] | [54] | [57] | [62]
-0.074: [7] | [30] | Neu5Ac(b2-6)Gal(b1-4)Glc
-0.069: [27]
-0.072: Neu5Ac(a2-3)Gal(b1-4)Glc | Neu5Ac(a2-6)Gal(b1-4)Glc | [49]
-0.066: [1]
-0.049: [59]
-0.07: [3] | Neu(a2-3)Gal(b1-4)Glc | [9] | Neu(a2-6)Gal(b1-4)Glc | [21] | [61]
-0.071: [64]
-0.065: Neu5Ac(b2-3)Gal(b1-4)Glc
-0.068: [4]
-0.076: all other assays above
